Experimental data: US20260284066A1, “TYK2 INHIBITORS AND COMPOSITIONS AND METHODS THEREOF” (LYNK PHARMACEUTICALS CO. LTD., priority 2023, published 2026)

Test system: Ba/F3-FL-TYK2-P760L cells
Assay: Anti-proliferative assay in Ba/F3-FL-TYK2-P760L cells (Cell-Titer Glo)
Type: cell-based
Conditions: 72 h

## (R*)-6(Cyclopropanecarboxamido)-4((7-methoxy-1-(1,1,1-trifuoropropan-2-yl)-1H-pyrazolo[4,3-c]pyridin-6-yl)amino)-N-(methyl-d3)nicotinamide [Example 3A]
  IC50: 1800 nM
